# The other results are listed elsewhere or left out.
# B1: Cohesin-mDCIR (Macaca mulatta) (protein)
# chain: GLDDLDAVRIKVDTVNAKPGDTVRIPVRFSGIPSKGIANCDFVYSYDPNVLEIIEIEPGDIIVDPNPDKSFDTAVYPDRKIIVFLFAEDSGTGAYAITKDGVFATIVAKVKEGAPNGLSVIKFVEVGGFANNDLVEQKTQFFDGGVNVGDTTEPATPTTPVTTPTTTDDLDAASFQKYSQLLEKMTTKDLVHTTLECVKKNMTTEETAWSCCPKNWKPFSSNCYFISTESASWQKSEKDCARMEAHLLVINTREEQDFIFQNLQEESAYFVGLSDPEGQRHWQWVDRTPYNESSTFWHPHEPSDPDERCVVLNFRKTPKRWGWNDVHCIVHQRSVCEMMKIHLHHHHHH
# Columns and labels:
# Assay in all cases: glycan array binding signal (z-score within array); higher = stronger binding
# Settings in all cases: glycan notation: IUPAC condensed, linker removed
# [1] = molecular target: Fuc(a1-2)Gal(b1-4)[Fuc(a1-3)]GlcNAc(b1-2)Man(a1-3)[Fuc(a1-2)Gal(b1-4)[Fuc(a1-3)]GlcNAc(b1-2)Man(a1-6)]Man(b1-4)GlcNAc(b1-4)[Fuc(a1-6)]GlcNAc
# Method in brief: (§1)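 Columns mapping to the same glycan were averaged after glycan names were converted to IUPAC-condensed notation. The data come from 3228 arrays in the Consortium for Functional Glycomics database, limited to those with an available protein sequence. Binding is reported as a within-array Z-score averaged across arrays of one protein sequence and across linkers.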
# [2] = molecular target: Fuc(a1-2)Gal(b1-4)[Fuc(a1-3)]GlcNAc(b1-2)[Fuc(a1-2)Gal(b1-4)[Fuc(a1-3)]GlcNAc(b1-4)]Man(a1-3)[Fuc(a1-2)Gal(b1-4)[Fuc(a1-3)]GlcNAc(b1-2)Man(a1-6)]Man(b1-4)GlcNAc(b1-4)GlcNAc
# Method in brief: as §1
# [3] = molecular target: Fuc(a1-2)Gal(b1-4)[Fuc(a1-3)]GlcNAc(b1-3)Gal(b1-4)[Fuc(a1-3)]GlcNAc
# Method in brief: as §1
# [4] = molecular target: Fuc(a1-2)Gal(b1-4)[Fuc(a1-3)]GlcNAc(b1-3)Gal(b1-4)[Fuc(a1-3)]GlcNAc(b1-3)Gal(b1-4)[Fuc(a1-3)]GlcNAc
# Method in brief: as §1
# [5] = molecular target: Fuc(a1-2)Gal(b1-4)[Fuc(a1-3)]GlcNAc(b1-3)GalNAc
# Method in brief: as §1
# [6] = molecular target: Fuc(a1-2)Gal(b1-4)[Fuc(a1-3)]GlcNAc(b1-3)[Neu5Ac(a2-6)Gal(b1-4)GlcNAc(b1-6)]Gal(b1-4)Glc
# Method in brief: as §1
# [7] = molecular target: Fuc(a1-2)Gal3S(b1-4)GlcNAc
# Method in brief: as §1
# [8] = molecular target: Fuc(a1-2)Gal6S(b1-3)GlcNAc
# Method in brief: as §1
# [9] = molecular target: Fuc(a1-2)Gal6S(b1-3)GlcNAc6S
# Method in brief: as §1
# [10] = molecular target: Fuc(a1-2)Gal6S(b1-4)Glc
# Method in brief: as §1
# [11] = molecular target: Fuc(a1-2)Gal6S(b1-4)Glc6S
# Method in brief: as §1
# [12] = molecular target: Fuc(a1-2)[Gal(a1-3)]Gal
# Method in brief: as §1
# [13] = molecular target: Fuc(a1-2)[Gal(a1-3)]Gal(b1-3)GalNAc
# Method in brief: as §1
# [14] = molecular target: Fuc(a1-2)[Gal(a1-3)]Gal(b1-3)GalNAc(b1-3)Gal(a1-4)Gal(b1-4)Glc
# Method in brief: as §1
# [15] = molecular target: Fuc(a1-2)[Gal(a1-3)]Gal(b1-3)GlcNAc
# Method in brief: as §1
# [16] = molecular target: Fuc(a1-2)[Gal(a1-3)]Gal(b1-3)GlcNAc(b1-2)Man(a1-3)[Fuc(a1-2)[Gal(a1-3)]Gal(b1-3)GlcNAc(b1-2)Man(a1-6)]Man(b1-4)GlcNAc(b1-4)GlcNAc
# Method in brief: as §1
# [17] = molecular target: Fuc(a1-2)[Gal(a1-3)]Gal(b1-3)GlcNAc(b1-2)Man(a1-3)[Fuc(a1-2)[Gal(a1-3)]Gal(b1-3)GlcNAc(b1-2)Man(a1-6)]Man(b1-4)GlcNAc(b1-4)[Fuc(a1-6)]GlcNAc
# Method in brief: as §1
# [18] = molecular target: Fuc(a1-2)[Gal(a1-3)]Gal(b1-3)GlcNAc(b1-3)GalNAc
# Method in brief: as §1
# [19] = molecular target: Fuc(a1-2)[Gal(a1-3)]Gal(b1-3)GlcNAc(b1-6)GalNAc
# Method in brief: as §1
# [20] = molecular target: Fuc(a1-2)[Gal(a1-3)]Gal(b1-4)Glc
# Method in brief: as §1
# [21] = molecular target: Fuc(a1-2)[Gal(a1-3)]Gal(b1-4)GlcNAc
# Method in brief: as §1
# [22] = molecular target: Fuc(a1-2)[Gal(a1-3)]Gal(b1-4)GlcNAc(b1-2)Man
# Method in brief: as §1
# [23] = molecular target: Fuc(a1-2)[Gal(a1-3)]Gal(b1-4)GlcNAc(b1-2)Man(a1-3)[Fuc(a1-2)[Gal(a1-3)]Gal(b1-4)GlcNAc(b1-2)Man(a1-6)]Man(b1-4)GlcNAc(b1-4)GlcNAc
# Method in brief: as §1
# [24] = molecular target: Fuc(a1-2)[Gal(a1-3)]Gal(b1-4)GlcNAc(b1-2)Man(a1-3)[Fuc(a1-2)[Gal(a1-3)]Gal(b1-4)GlcNAc(b1-2)Man(a1-6)]Man(b1-4)GlcNAc(b1-4)[Fuc(a1-6)]GlcNAc
# Method in brief: as §1
# [25] = molecular target: Fuc(a1-2)[Gal(a1-3)]Gal(b1-4)GlcNAc(b1-3)GalNAc
# Method in brief: as §1
# [26] = molecular target: Fuc(a1-2)[Gal(a1-3)]Gal(b1-4)GlcNAc(b1-3)[Fuc(a1-2)[Gal(a1-3)]Gal(b1-4)GlcNAc(b1-6)]GalNAc
# Method in brief: as §1
# [27] = molecular target: Fuc(a1-2)[Gal(a1-3)]Gal(b1-4)GlcNAc(b1-6)GalNAc
# Method in brief: as §1
# [28] = molecular target: Fuc(a1-2)[Gal(a1-3)]Gal(b1-4)[Fuc(a1-3)]Glc
# Method in brief: as §1
# [29] = molecular target: Fuc(a1-2)[Gal(a1-3)]Gal(b1-4)[Fuc(a1-3)]GlcNAc
# Method in brief: as §1
# [30] = molecular target: Fuc(a1-2)[Gal(a1-3)]Gal(b1-4)[Fuc(a1-3)]GlcNAc(b1-3)GalNAc
# Method in brief: as §1
# [31] = molecular target: Fuc(a1-2)[Gal(a1-4)]Gal(b1-4)GlcNAc
# Method in brief: as §1
# [32] = molecular target: Fuc(a1-2)[GalNAc(a1-3)]Gal
# Method in brief: as §1
# [33] = molecular target: Fuc(a1-2)[GalNAc(a1-3)]Gal(b1-3)GalNAc(a1-3)[Fuc(a1-2)]Gal(b1-4)GlcNAc
# Method in brief: as §1
# [34] = molecular target: Fuc(a1-2)[GalNAc(a1-3)]Gal(b1-3)GalNAc(b1-3)Gal(a1-4)Gal(b1-4)Glc
# Method in brief: as §1
# [35] = molecular target: Fuc(a1-2)[GalNAc(a1-3)]Gal(b1-3)GlcNAc
# Method in brief: as §1
# [36] = molecular target: Fuc(a1-2)[GalNAc(a1-3)]Gal(b1-3)GlcNAc(b1-2)Man(a1-3)[Fuc(a1-2)[GalNAc(a1-3)]Gal(b1-3)GlcNAc(b1-2)Man(a1-6)]Man(b1-4)GlcNAc(b1-4)GlcNAc
# Method in brief: as §1
# [37] = molecular target: Fuc(a1-2)[GalNAc(a1-3)]Gal(b1-3)GlcNAc(b1-2)Man(a1-3)[Fuc(a1-2)[GalNAc(a1-3)]Gal(b1-3)GlcNAc(b1-2)Man(a1-6)]Man(b1-4)GlcNAc(b1-4)[Fuc(a1-6)]GlcNAc
# Method in brief: as §1
# [38] = molecular target: Fuc(a1-2)[GalNAc(a1-3)]Gal(b1-3)GlcNAc(b1-3)GalNAc
# Method in brief: as §1
binder,measurement,setting,value
B1,glycan array binding signal (z-score),[1],-0.015
same,glycan array binding signal (z-score),[2],-0.234
same,glycan array binding signal (z-score),[3],-0.412
same,glycan array binding signal (z-score),[4],-0.414
same,glycan array binding signal (z-score),[5],-0.393
same,glycan array binding signal (z-score),[6],-0.446
same,glycan array binding signal (z-score),[7],-0.161
same,glycan array binding signal (z-score),[8],0.324
same,glycan array binding signal (z-score),[9],0.098
same,glycan array binding signal (z-score),[10],-0.432
same,glycan array binding signal (z-score),[11],-0.051
same,glycan array binding signal (z-score),[12],-0.365
same,glycan array binding signal (z-score),[13],-0.348
same,glycan array binding signal (z-score),[14],-0.472
same,glycan array binding signal (z-score),[15],3.96
same,glycan array binding signal (z-score),[16],-0.37
same,glycan array binding signal (z-score),[17],-0.435
same,glycan array binding signal (z-score),[18],-0.241
same,glycan array binding signal (z-score),[19],0.926
same,glycan array binding signal (z-score),[20],0.341
same,glycan array binding signal (z-score),[21],-0.349
same,glycan array binding signal (z-score),[22],-0.085
same,glycan array binding signal (z-score),[23],-0.297
same,glycan array binding signal (z-score),[24],-0.409
same,glycan array binding signal (z-score),[25],-0.393
same,glycan array binding signal (z-score),[26],-0.272
same,glycan array binding signal (z-score),[27],-0.44
same,glycan array binding signal (z-score),[28],-0.284
same,glycan array binding signal (z-score),[29],-0.107
same,glycan array binding signal (z-score),[30],-0.416
same,glycan array binding signal (z-score),[31],-0.141
same,glycan array binding signal (z-score),[32],-0.086
same,glycan array binding signal (z-score),[33],-0.303
same,glycan array binding signal (z-score),[34],-0.373
same,glycan array binding signal (z-score),[35],0.055
same,glycan array binding signal (z-score),[36],0.099
same,glycan array binding signal (z-score),[37],-0.122
same,glycan array binding signal (z-score),[38],-0.237
